Publication PMC4336329 (PLoS ONE, 2015)
The campaign covered roughly 310,000 compounds. About 14,000 (4.5%) showed an effect of 50% or more. Effects have a minus sign here. The list shows a part of the results.

Target: human ether-à-go-go-related gene (hERG) potassium channel (human, UniProt Q12809)
Test: primary screen, population patch clamp on CHO cells stably expressing hERG
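Note: peak tail current of the secondary pulse compared with the same well before compound.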

Chain of human ether-à-go-go-related gene (hERG) potassium channel (Q12809 whole entry, looked up): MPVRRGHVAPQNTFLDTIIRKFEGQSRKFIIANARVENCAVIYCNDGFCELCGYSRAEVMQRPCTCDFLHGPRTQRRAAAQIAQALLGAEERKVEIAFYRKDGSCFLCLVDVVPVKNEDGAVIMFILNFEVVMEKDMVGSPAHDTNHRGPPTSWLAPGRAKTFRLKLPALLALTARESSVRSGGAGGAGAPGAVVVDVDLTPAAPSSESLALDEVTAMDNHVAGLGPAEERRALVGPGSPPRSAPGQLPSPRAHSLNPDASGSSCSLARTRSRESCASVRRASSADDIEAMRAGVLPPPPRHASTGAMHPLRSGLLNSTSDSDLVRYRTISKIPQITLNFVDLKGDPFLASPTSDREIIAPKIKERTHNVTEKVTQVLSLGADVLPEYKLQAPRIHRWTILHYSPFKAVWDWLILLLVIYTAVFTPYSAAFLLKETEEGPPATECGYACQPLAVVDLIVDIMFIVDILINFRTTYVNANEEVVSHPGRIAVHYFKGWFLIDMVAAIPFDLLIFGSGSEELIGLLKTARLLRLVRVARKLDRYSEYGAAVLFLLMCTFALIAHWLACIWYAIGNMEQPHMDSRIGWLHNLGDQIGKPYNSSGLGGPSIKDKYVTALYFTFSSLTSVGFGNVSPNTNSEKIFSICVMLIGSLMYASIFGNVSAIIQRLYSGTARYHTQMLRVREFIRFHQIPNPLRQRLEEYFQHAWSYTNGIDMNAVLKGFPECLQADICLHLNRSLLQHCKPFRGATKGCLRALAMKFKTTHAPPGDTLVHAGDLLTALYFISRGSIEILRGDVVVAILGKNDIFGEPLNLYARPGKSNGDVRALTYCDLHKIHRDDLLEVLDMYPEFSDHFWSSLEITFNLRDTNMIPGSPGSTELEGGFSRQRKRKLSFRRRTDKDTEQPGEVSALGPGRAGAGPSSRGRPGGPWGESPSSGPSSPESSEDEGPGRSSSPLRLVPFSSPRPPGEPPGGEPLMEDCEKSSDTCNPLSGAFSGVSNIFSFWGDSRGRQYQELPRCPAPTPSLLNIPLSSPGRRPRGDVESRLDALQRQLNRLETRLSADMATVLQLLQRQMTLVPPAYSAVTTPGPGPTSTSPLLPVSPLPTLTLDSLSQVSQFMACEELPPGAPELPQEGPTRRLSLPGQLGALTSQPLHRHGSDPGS

Compared with `COc1ccc(NC(=O)c2cc(=O)c3ccccc3o2)cc1Cl`, `CCOC(=O)c1cccc(NC(=O)CCn2c(=O)oc3ccccc32)c1` is lower in “hERG current change (%, negative = inhibition) at 10uM” value: 30% for the first, -26.4% for the second.

First: Cc1cc(C)c(OCC(=O)Nc2cccc(NC(=O)c3ccco3)c2)c(Br)c1
Second: CCOc1cc(/C=N/O)ccc1OCC(=O)Nc1cccc(C)c1
The “hERG current change (%, negative = inhibition) at 10uM” value of the first is lower: 1.79% for the first, 7.84% for the second.

Compared with `N#Cc1cc(C(=O)c2cc(Cl)ccc2O)cn(-c2ccccc2)c1=O`, `CC(=O)c1cc(C#N)c(NCc2cc(-c3ccccc3)no2)nc1C` is higher in “hERG current change (%, negative = inhibition) at 10uM” value: -24.8% for the first, 12.2% for the second.

First: COc1ccccc1N1CCN(CC(=O)Nc2ccc(S(=O)(=O)N3CCCCCC3)cc2)CC1
Second: O=C(c1cccc(S(=O)(=O)NCc2ccccc2)c1)N1CCN(c2ccc(F)cc2)CC1
The “hERG current change (%, negative = inhibition) at 10uM” value of the first is higher: -28.7% for the first, -58.1% for the second.

First: Nc1nc(NC(=O)/C=C/c2ccccc2)nn1-c1ccccc1
Second: N=C1C(c2ccccc2)=C(O)CN1NC(=O)c1ccccc1
The “hERG current change (%, negative = inhibition) at 10uM” value of the first is lower: -32.6% for the first, 13.1% for the second.

First: CC(Cc1cccs1)NC(=S)Nc1ccc(Cl)c(Cl)c1 (stereo not shown)
Second: CC(NC(=O)Nc1cccc(Cl)c1)C(c1cccs1)N1CCCC1 (stereo not shown)
The “hERG current change (%, negative = inhibition) at 10uM” value of the first is higher: -5.59% for the first, -22.8% for the second.

Compared with `O=C(CSc1nc(-c2ccco2)cc(C(F)(F)F)n1)Nc1ccc(C(=O)N2CCOCC2)cc1`, `O=C(Nc1ccc(CSc2ccccc2)cc1)c1ccc(CN2CCOCC2)cc1` is higher in “hERG current change (%, negative = inhibition) at 10uM” value: -4.46% for the first, -4.34% for the second.

First: Cc1ccc(C2C(=O)N(C3CCC(C)CC3)CC(=O)N2C2CCCC2)cc1 (stereo not shown)
Second: C[C@@]12C(=O)N(CC3CCCO3)CC(=O)N1[C@H]1c3ccccc3OC[C@@H]1[C@@H]2c1ccccc1 (stereo partly shown)
The “hERG current change (%, negative = inhibition) at 10uM” value of the first is lower: -35.5% for the first, 1.11% for the second.

First: CCOC(=O)c1c(C)[nH]c(C)c1S(=O)(=O)N1CCN(c2ccc(F)cc2)CC1
Second: O=C(CSc1ccccc1)N1CCN(S(=O)(=O)c2ccccc2F)CC1
The “hERG current change (%, negative = inhibition) at 10uM” value of the first is lower: -39.1% for the first, -23.9% for the second.

Going from `CC(C)c1ccc(NC2=CC(=O)CC(C)(C)C2)cc1` to `CNC(=S)NCC(O)c1ccc([N+](=O)[O-])cc1` (stereo not shown), the “hERG current change (%, negative = inhibition) at 10uM” value falls from 12.6% to 5.5%.

Going from `Cc1ccc(C)c(N(C(=O)c2snc(C(N)=O)c2N)C(C(=O)NCC2CCCO2)c2cccs2)c1` (stereo not shown) to `Cc1ccc(C(=O)NCC2CCCN2S(=O)(=O)c2cccs2)cc1C` (stereo not shown), the “hERG current change (%, negative = inhibition) at 10uM” value falls from -10.8% to -16.8%.

First: CCOc1ccc(CC(C(N)=O)C(N)=O)cc1CN(C)C
Second: CCOc1ccc(Cl)cc1CSc1ncn[nH]1
The “hERG current change (%, negative = inhibition) at 10uM” value of the first is higher: 3.02% for the first, -4.67% for the second.

First: CC1CN(S(=O)(=O)c2ccc(CN3C(=O)c4cccnc4C3=O)s2)c2ccccc2O1 (stereo not shown)
Second: CCC(=O)Nc1ccc(C2C(=O)c3ccccc3C2=O)cc1
The “hERG current change (%, negative = inhibition) at 10uM” value of the first is lower: -11.5% for the first, 4.71% for the second.

First: O=C(NC(NNc1ccc([N+](=O)[O-])cc1)(C(F)(F)F)C(F)(F)F)c1ccc(F)cc1
Second: CC(=O)Nc1ccc(S(=O)(=O)Nc2nc3ccc([N+](=O)[O-])cc3s2)cc1
The “hERG current change (%, negative = inhibition) at 10uM” value of the first is lower: -2.67% for the first, 22.2% for the second.

Compared with `O=C(/C=C/c1ccccc1)OCc1cncs1`, `CN(C)S(=O)(=O)c1cccc(COC(=O)c2cnccn2)c1` is higher in “hERG current change (%, negative = inhibition) at 10uM” value: 10.6% for the first, 15.6% for the second.

`NC(=O)c1ccsc1NC(=O)COC(=O)c1c(F)cccc1Cl` and `N#Cc1ccc(NC(=O)COC(=O)CNC(=O)C2CCCCC2)cc1` are the same in “hERG current change (%, negative = inhibition) at 10uM” value: -18.8% for the first, -18.8% for the second.

First: O=C(NN=C1CCCCCCC1)c1ccccn1
Second: CS(=O)(=O)N(CC(=O)NCc1ccc(Cl)cc1)C1CCCCC1
The “hERG current change (%, negative = inhibition) at 10uM” value of the first is higher: 2.74% for the first, -26.1% for the second.

First: COc1ccc(OCCCC(=O)NCCc2ccc(OC)c(OC)c2)cc1
Second: COC(=O)c1ccc(CN2CCC(CO)(Cc3ccc(OC)cc3)CC2)cc1
The “hERG current change (%, negative = inhibition) at 10uM” value of the first is higher: 23.8% for the first, -66.1% for the second.

Going from `CCN(CC)S(=O)(=O)c1ccc(NC(=O)CNC2CCCCC2)cc1.O=C(O)C(=O)O` to `CC(=O)Nc1ccc(N(C(=O)c2ccco2)C(C(=O)NC2CCCC2)c2ccc(N(C)C)cc2)cc1` (stereo not shown), the “hERG current change (%, negative = inhibition) at 10uM” value rises from -7.08% to -2.55%.

First: O=C(CSc1ccc(-c2ccco2)nn1)NCc1ccccc1
Second: O=C(NCc1ccccc1Cl)C(=O)c1c[nH]c2ccccc12
The “hERG current change (%, negative = inhibition) at 10uM” value of the first is lower: -12.9% for the first, 5.17% for the second.

Going from `CCOC(=O)N1CCN(C(=S)Nc2ccc(C)cc2C)CC1` to `CCOC(=O)C1CCN(C(=S)Nc2cc(OC)c(OC)cc2C(=O)OC)CC1`, the “hERG current change (%, negative = inhibition) at 10uM” value falls from 5.08% to -10.9%.

Going from `COc1ccc2c(c1)c(=O)oc1c(C)c(OC(C)C(=O)NCC3CCC(C(=O)O)CC3)ccc12` (stereo not shown) to `COCCNC(=O)C(c1ccc(C)cc1)N(C(=O)C(=O)NC1CCCC1)c1ccc2c(c1)OCCO2` (stereo not shown), the “hERG current change (%, negative = inhibition) at 10uM” value rises from 13.7% to 26%.

Compared with `CCn1cc(CN2CCCC(C(=O)Nc3ccc(-c4cscn4)cc3)C2)c(C)n1` (stereo not shown), `CC(=O)c1ccc(NC(=O)N2C[C@H]3C[C@@H](C2)c2cccc(=O)n2C3)cc1` is higher in “hERG current change (%, negative = inhibition) at 10uM” value: -8.71% for the first, 0.474% for the second.

Going from `COC(=O)c1ccc(CSc2nc(C)nc3c2c(=O)n(C)c(=O)n3C)o1` to `CCNC(=S)Nc1ccc(S(=O)(=O)Nc2cc(C)nc(C)n2)cc1`, the “hERG current change (%, negative = inhibition) at 10uM” value rises from 14.7% to 25.1%.

Compared with `CC(C)CCn1c(SC(C)C(=O)NC2CC2)nc2ccccc2c1=O` (stereo not shown), `Cc1cccc(NC(=O)CSc2nc3nc4c(cc3c(=O)n2-c2ccccc2)CCCC4)c1` is lower in “hERG current change (%, negative = inhibition) at 10uM” value: 5.98% for the first, -5.76% for the second.

First: Cc1cc(C(=O)COC(=O)c2csc3c2CCCC3)c(C)n1C
Second: CCCCC(OC(=O)c1cc2occc2n1C)C(=O)NCC1CCCO1 (stereo not shown)
The “hERG current change (%, negative = inhibition) at 10uM” value of the first is higher: 22.1% for the first, -31.8% for the second.

First: CCCC(=O)N(CCN1CCOCC1)c1nc2c(OC)ccc(OC)c2s1.Cl
Second: O=C(CSCc1ccc(F)cc1)Nc1ccc(N2CCOCC2)cc1N1CCOCC1
The “hERG current change (%, negative = inhibition) at 10uM” value of the first is higher: -15.5% for the first, -47.4% for the second.

In the case of `COc1cccc(CNc2ccc(Br)cn2)c1O`, the “hERG current change (%, negative = inhibition) at 10uM” value is reported as -0.282%.
